Out of some 48,000 compounds screened, about 550 (1.1%) were called active. Not shown: some 4% with an inconclusive outcome. No stated cut-off is given here; in the data, active means potency below about 15 µM; inconclusive means mostly about 16 µM to 33 µM; inactive means weaker than that. The list shows a part of the results.
Potency means the concentration at half of the fitted maximal effect.

Sequence of UniProt P04062 (P04062 whole entry, looked up): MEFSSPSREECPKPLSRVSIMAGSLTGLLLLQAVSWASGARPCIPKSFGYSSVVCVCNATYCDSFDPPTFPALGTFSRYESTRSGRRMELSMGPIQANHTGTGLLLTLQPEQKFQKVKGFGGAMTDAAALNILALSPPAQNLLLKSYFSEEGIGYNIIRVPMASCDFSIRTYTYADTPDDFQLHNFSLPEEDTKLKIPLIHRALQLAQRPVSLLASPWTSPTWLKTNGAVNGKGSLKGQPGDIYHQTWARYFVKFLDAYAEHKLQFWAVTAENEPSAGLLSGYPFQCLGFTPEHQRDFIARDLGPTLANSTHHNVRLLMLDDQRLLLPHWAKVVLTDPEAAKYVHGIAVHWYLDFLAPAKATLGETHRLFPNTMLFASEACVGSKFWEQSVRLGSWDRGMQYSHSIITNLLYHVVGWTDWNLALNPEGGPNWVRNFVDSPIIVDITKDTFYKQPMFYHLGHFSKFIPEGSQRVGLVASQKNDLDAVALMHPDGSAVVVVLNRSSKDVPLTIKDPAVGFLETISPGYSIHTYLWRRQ

The target of this assay is Lysosomal acid glucosylceramidase (Homo sapiens) (UniProt P04062). Nature of the assay: Glucocerebrosidase.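 Further: the screen sought inhibitors.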 To be noted: purified enzyme, resorufin glucoside fluorescence (screen aimed at inhibitors), 20 min; series mostly up to 77 µM. Summed up:
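Wild-type enzyme at 0.2 nM final in 50mM citric acid/KH2PO4, 10mM sodium taurocholate, 0.01% tween-20, pH 5.9, with resorufin beta-D-glucopyranoside at 30 uM final. Compounds titrated, 20 min at RT, red fluorescence read; AC50 from titration.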
On to `COc1cccc(-c2cc(C(=O)NCCc3ccccc3)no2)c1`, for which the Potency was inactive: > 76.9 µM.
Turning to `CCNC(=O)N1c2ccc(OCC)cc2C(C)=CC1(C)C`, the Potency is inactive: > 76.9 µM.
For the compound `COc1ccc(Nc2ncc3c(n2)CC(c2ccccc2)CC3=O)cc1` (configuration not stated), the Potency was inactive: > 76.9 µM.
The figure for `Cc1ccc(C2NC(=O)c3ccccc3N2)s1` (configuration not stated) is inactive: > 76.9 µM; for `Cc1ccc(C2NC(=O)NC3=C2CCc2ccccc23)cc1` (configuration not stated) it is inactive: > 76.9 µM; for `Cc1ccc(S(=O)(=O)Nc2nc3ccccc3nc2NCc2ccco2)cc1` it is inactive: > 76.9 µM.
On to `Cc1nn(CCC#N)c2nc(C(F)(F)F)[nH]c(=O)c12`, for which the Potency was inactive: > 76.9 µM.
For `O=C(CCn1c(=O)sc2ccccc21)Nc1ccon1`, the Potency is inactive: > 76.9 µM.
The figure for `O=C(Nc1nnc(CC2=CCCCC2)s1)c1cccs1` is inactive: > 76.9 µM; for `O=C(O)CSc1sc(=S)sc1SCC(=O)O` it is inactive: > 76.9 µM.
Take `O=C(CSc1ncn(-c2ccccc2)n1)N1CCN(c2ccccc2)CC1`: the Potency is inactive: > 76.9 µM.
For `CCCCN(Cc1cc2cc(OC)ccc2[nH]c1=O)C(=O)c1ccccn1`, the Potency was inactive: > 76.9 µM.
With `COC(=O)CSc1nnc(CNC(=O)c2ccco2)n1-c1ccc(F)cc1`, the Potency is inactive: > 76.9 µM.
The figure for `O=S(=O)(CCOc1ccccc1)c1nc2ccccc2[nH]1` is inactive: > 76.9 µM; for `CC(=O)Nc1nc(N2C(=O)c3ccccc3C2=O)n(-c2ccccc2)n1` it is inactive: > 76.9 µM; for `CCOc1ccc(-c2[nH]nc3c2C(c2cccnc2)C(C#N)=C(N)O3)cc1` (configuration not stated) it is inactive: > 76.9 µM.
In the case of `CCN(CC)C(=O)N1CCN(C(=O)c2ccc(C)cn2)CC1`, the Potency was inactive: > 76.9 µM.
Regarding `COc1cccc(N2CC34C=CC(O3)C(C(=O)O)C4C2=O)c1` (configuration not stated), the Potency is inactive: > 76.9 µM.
As for `Cc1cc(N2CCOCC2)cc(C)[n+]1[O-]`, the figure is inactive: > 76.9 µM.
The figure for `C#CCN1C(=O)C2C(C(=O)NC)C3C=CC2(O3)C1C(=O)NCc1ccc(OC)cc1` (configuration not stated) is inactive: > 76.9 µM; for `O=C(CCn1c(=O)sc2ccccc21)Nc1nccs1` it is inactive: > 76.9 µM.
As for `COc1ccc2nc(SCC(=O)N3CCNC3=O)[nH]c2c1`, the figure is inactive: > 76.9 µM.
For the compound `CC1CCN(C(c2ccc(N(C)C)cc2)c2nnnn2C(C)(C)C)CC1` (configuration not stated), the Potency is inactive: > 76.9 µM.
The entry for `Cc1nn2c(-c3ccccc3)c(-c3ccccc3)nc2[nH]c1=O` is “inactive”.
For the compound `CN(Cc1ccco1)C(=O)c1ccc(N2CCCC2=O)cc1`, the Potency is inactive: > 76.9 µM.
On to `CCc1c(C#N)c(SCc2c(C)noc2C)nc2c1C(=O)CC(C)(C)C2`, for which the Potency is inactive: > 76.9 µM.
The figure for `O=C(CSc1ncccn1)NCc1ccc(F)cc1` is inactive: > 76.9 µM.
Regarding `O=C(Cn1nc(C(F)(F)F)c2c1CCCC2)Nc1ccc2c(c1)OCO2`, the Potency is inactive: > 76.9 µM.
As for `N=c1c(C(=O)NCc2ccccc2)cc2c(=O)n3ccccc3nc2n1CCCN1CCOCC1`, the Potency is inactive: > 76.9 µM.
The figure for `CC1CN(S(=O)(=O)c2cccs2)CC(C)O1` (configuration not stated) is inactive: > 76.9 µM; for `O=c1c2c(nc3nc(SCc4ccccc4)[nH]n13)CCC2` it is inactive: > 76.9 µM.
The figure for `CCc1nc2nc(C)cc(Nc3cccc(C(F)(F)F)c3)n2n1` is inactive: > 76.9 µM.
For `COCCOc1nc2c(c(=O)n(C)c(=O)n2C)n1CCc1ccccc1`, the Potency is inactive: > 76.9 µM.
As for `COC(=O)c1cc2c(=O)n3ccccc3nc2n(C)c1=N`, the figure is inactive: > 76.9 µM.
With `O=S(=O)(NCCOC12CC3CC(CC(C3)C1)C2)c1cccc2nsnc12`, the Potency was inactive: > 76.9 µM.
As to `Cc1cc(=O)n2nc(N3CCC(C(=O)NC4CCCc5ccccc54)CC3)sc2n1` (configuration not stated), the Potency was inactive: > 76.9 µM.
As for `CC1c2[nH]c3ccccc3c2CCN1C(=O)Nc1ccccc1` (configuration not stated), the figure is inactive: > 76.9 µM.
`Brc1cc(Br)c2ncnc(N3CCCCC3)c2c1`: the Potency was inactive: > 76.9 µM.
As for `CCOc1ccc(CN(C(=O)c2ccco2)C2CCS(=O)(=O)C2)cc1` (configuration not stated), the figure is inactive: > 76.9 µM; as for `COc1ccc(NC(=O)CSc2nc3c(c(=O)n2-c2ccc(C)cc2)SCC3)c(OC)c1`, inactive: > 76.9 µM.
`COCCn1c(SCc2nc3ccccc3s2)nc2ccccc21`: the Potency is inactive: > 76.9 µM.
As for `COC(=O)c1ccc(OC(=O)C2CC(=O)N(c3cccc(C)c3)C2)cc1` (configuration not stated), the figure is inactive: > 76.9 µM.
On to `COc1ccc(OC)c(NC(=O)c2cc(-c3cc(Cl)ccc3O)n[nH]2)c1`, for which the Potency is inactive: > 76.9 µM.
The figure for `COc1ccc(CCNC(=O)COc2ccc(S(=O)(=O)N3CCOCC3)cc2)cc1OC` is inactive: > 76.9 µM; for `O=C(Nc1ccccc1C(F)(F)F)c1ccc(F)c(S(=O)(=O)N2CCOCC2)c1` it is inactive: > 76.9 µM; for `C=CCn1c(SCC(=O)NCC(=O)OCC)nnc1-c1ccccn1` it is inactive: > 76.9 µM.
Consider `O=C(CSc1nnnn1C1CCCC1)Nc1ccc2c(c1)OCO2`, for which the Potency is inactive: > 76.9 µM.
In the case of `O=C(CSc1nnc(-c2ccc3c(c2)OCCO3)o1)N1CCCC1`, the Potency was inactive: > 76.9 µM.
The figure for `COc1ccccc1-c1noc(-c2ccccc2C(=O)Nc2ccccc2)n1` is inactive: > 76.9 µM.
As to `CN(c1ccc(C(=O)Nc2cccnc2)cc1)S(C)(=O)=O`, the Potency is inactive: > 76.9 µM.
In the case of `C(=N\C(/N=C/c1ccco1)c1ccco1)/c1ccco1`, the Potency is inactive: > 76.9 µM.
`COc1ccc(C2(O)CCN(C(=O)c3c(F)cccc3F)CC2)cc1`: the Potency is inactive: > 76.9 µM.
As for `CCCc1cc(N2CCCC(C(=O)Nc3cc(Cl)ccc3OC)C2)n2ncnc2n1` (configuration not stated), the figure is inactive: > 76.9 µM; as for `O=C(c1ccc(F)cc1)N1CCN(C2CC3CCC2C3)CC1` (configuration not stated), inactive: > 76.9 µM; as for `C=C(C)CSc1nnc(-c2ccccc2)n1N`, inactive: > 76.9 µM.
In the case of `O=C(CCCOc1ccc(Cl)cc1)N1CCOCC1`, the Potency was inactive: > 76.9 µM.
Consider `CCC(=O)Nc1ccc2nc(SCC(=O)N3CCCC3)sc2c1`, for which the Potency is inactive: > 76.9 µM.
Take `Cc1[nH]c2ccccc2c1C(c1ccccn1)N1CCC(C(N)=O)CC1` (configuration not stated): the Potency is inactive: > 76.9 µM.
The figure for `COC(=O)c1ccc2c(=O)n(Cc3ccco3)c(SCC(=O)Nc3ccccc3Cl)nc2c1` is inactive: > 76.9 µM; for `CCCOc1ccc(C(=O)c2nc3c(n2O)CCCC3)cc1` it is inactive: > 76.9 µM.
The figure for `Cc1cc(C)n(-c2cccc3cccnc23)n1` is inactive: > 76.9 µM; for `COc1ccc(C(=O)N(CC(=O)NC(C)(C)C)c2ccc3c(c2)OCCO3)cc1OC` it is inactive: > 76.9 µM.
Regarding `COC(=O)c1ccccc1S(=O)(=O)NC(=O)c1ccccc1`, the Potency is inactive: > 76.9 µM.
As to `O=C(NC1CCCCC1)C(c1cccs1)N(Cc1cccs1)C(=O)c1ccco1` (configuration not stated), the Potency was inactive: > 76.9 µM.
The figure for `COc1ccc(-c2cc(C(F)(F)F)n3nc(C(=O)N4CCOCC4)nc3n2)cc1` is inactive: > 76.9 µM; for `Cc1ccc(-n2nc(C)c3c2OC(N)=C(C#N)C3c2cccs2)cc1` (configuration not stated) it is inactive: > 76.9 µM; for `Nc1nc(CN2CCOCC2)cs1` it is inactive: > 76.9 µM.
For the compound `O=S(=O)(c1ccc(S(=O)(=O)N2CCN(Cc3ccccc3)CC2)cc1)N1CCOCC1`, the Potency is inactive: > 76.9 µM.
The figure for `Cc1nc2c(C(=O)NCc3ccccc3)c[nH]n2c(=O)c1Cl` is inactive: > 76.9 µM; for `CC(=O)c1ccc(Oc2cc(C)nc(-n3nc(C)cc3C)n2)cc1` it is inactive: > 76.9 µM; for `Cc1cc(=O)n(CC=C(Cl)Cl)c2ccccc12` it is inactive: > 76.9 µM.
The figure for `CCOc1cc(N2CCOCC2)c(OCC)cc1NC(=O)COc1cccc2cccnc12` is inactive: > 76.9 µM; for `COC(=O)C1=C(C)OC(N)=C(C#N)C1c1c(C)nn(-c2ccccc2)c1Cl` (configuration not stated) it is inactive: > 76.9 µM.
In the case of `Cc1ccc(=O)n(C(C(=O)NCc2ccco2)C(=O)c2ccc(F)cc2)c1` (configuration not stated), the Potency is inactive: > 76.9 µM.
Take `Cc1ncc(CO)c2c1OC(C)(C)OC2`: the Potency is inactive: > 76.9 µM.
As for `O=c1n(-c2cccc(Cl)c2)c(=O)n2n1CCC2`, the figure is inactive: > 76.9 µM.
The figure for `CSc1nc2cc(S(=O)(=O)N3CCOCC3)ccc2s1` is inactive: > 76.9 µM; for `COc1ccc(Nc2nc3ccccc3c(=O)s2)c(OC)c1` it is inactive: > 76.9 µM; for `Cc1cccc(C)c1NC(=O)CSc1nnc([C@H](C)NC(=O)OC(C)(C)C)o1` it is inactive: > 76.9 µM.
On to `OC(COc1ccc2ccccc2c1)CN1CCOCC1` (configuration not stated), for which the Potency was inactive: > 76.9 µM.
Take `CCOC(=O)c1cc2oc(C(c3nnnn3C3CCCCC3)N3CCOCC3)cc2[nH]1` (configuration not stated): the Potency was inactive: > 76.9 µM.
As for `CCN(C(=O)CSc1nc2nc(C)cc(C)n2n1)c1ccccc1`, the figure is inactive: > 76.9 µM; as for `O=C(O)c1ccc(CSc2n[nH]c(-c3ccco3)n2)cc1`, inactive: > 76.9 µM; as for `O=C(CCC1CCCCC1)Nc1c2c(nn1-c1ccc(F)cc1)CS(=O)C2` (configuration not stated), inactive: > 76.9 µM.
As for `CCC(c1nnnn1CCC(C)C)N1CCC(C(N)=O)CC1` (configuration not stated), the figure is inactive: > 76.9 µM; as for `Nc1cc(=O)nc(SCC(=O)NC2CCCCC2)n1-c1ccccc1`, inactive: > 76.9 µM.
Regarding `COc1ccc(N2CCN(C(=O)c3ccc(OCC4CCCO4)cc3)CC2)cc1` (configuration not stated), the Potency was inactive: > 76.9 µM.
`CC(C)(C)n1ncc2c(=O)n(CC(=O)Nc3ccc4c(c3)OCCO4)cnc21`: the Potency is inactive: > 76.9 µM.
The figure for `COCCNC(=O)c1ccc(N(C)S(=O)(=O)c2ccc(OC)c(OC)c2)cc1` is inactive: > 76.9 µM; for `CC(C)N(C(=O)N1CCC(c2nc(-c3ccncc3)no2)CC1)C(C)C` it is inactive: > 76.9 µM; for `Cn1c(SCC(=O)N2c3ccccc3Sc3ccccc32)nnc1-c1ccco1` it is inactive: > 76.9 µM.
Regarding `CCOc1ccc2nc(NCCO)[nH]c2c1`, the Potency entry was “inactive”.

Source of the values: PubChem BioAssay AID360 (National Center for Advancing Translational Sciences (NCATS), 2006).
